In US20260224723A1, “ANTI-B7H3 ANTIBODY-DRUG CONJUGATE AND USE THEREOF” (Duality Biologics (Suzhou) Co., Ltd., priority 2022, published 2026):

T1: human 4IgB7H3 (Homo sapiens, UniProt Q5ZPR3)
T1 construct: Uniprot ID: Q5ZPR3, amino acids 29-461; 6xHis (C); made in house; host or cells: Expi293F
T1 sequence (Q5ZPR3 29-461): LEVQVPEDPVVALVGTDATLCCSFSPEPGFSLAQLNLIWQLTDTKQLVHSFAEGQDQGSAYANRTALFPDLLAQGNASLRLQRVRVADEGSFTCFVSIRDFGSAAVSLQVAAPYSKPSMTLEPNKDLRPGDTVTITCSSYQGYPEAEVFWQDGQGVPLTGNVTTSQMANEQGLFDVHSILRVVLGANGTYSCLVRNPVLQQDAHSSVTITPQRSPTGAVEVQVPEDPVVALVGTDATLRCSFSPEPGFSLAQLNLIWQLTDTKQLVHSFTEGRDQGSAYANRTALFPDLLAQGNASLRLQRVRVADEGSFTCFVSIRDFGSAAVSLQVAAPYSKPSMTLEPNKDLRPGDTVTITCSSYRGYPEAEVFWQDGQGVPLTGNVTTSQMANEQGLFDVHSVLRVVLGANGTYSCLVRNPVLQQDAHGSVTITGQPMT


Experiments:
[1] = Diffusion interaction parameter (kD) by DLS; assay type: physicochemical
Procedure: DLS-kD measurement was investigated using DynaPro plate reader III (Wyatt Technology). During the preparation of antibody samples, the appearance of the samples was recorded upon thawing, filtration and concentration. The antibody samples were concentrated to over 20 mg/mL and then diluted with PBS buffer to final concentrations of 2.5 mg/mL, 5 mg/mL, 10 mg/mL, 15 mg/mL, and 20 mg/mL. 7.5 μL of a sample solution was then added to a 1536-well microplate (Aurora-ABI1-00110A). The plate was sealed with ClearSeal film (Hampton Research-HR4-521) and centrifuged at 3,000 rpm for 5 min to allow the sample to descend to the bottom of the well. Each sample was tested in two duplicate wells. The plate was placed in the corresponding position and data collection was performed by the DYNAMICS operation software (v7.8.1.3). 5 acquisitions were collected for each protein sample while each acquisition time was 5 seconds. For each measurement, the diffusion coefficient was determined and plotted against the protein concentration.

[2] = molecular target: T1, human 4IgB7H3; experiment: SPR binding affinity for human 4IgB7H3 (Biacore 8K); conditions: analyte human 4IgB7H3
Procedure: The affinity of antibodies for human 4IgB7H3 was determined using surface plasmon resonance (SPR). The affinity of antibodies for human 4IgB7H3 was determined by Biacore 8K. An activator was prepared by mixing 400 mM EDC and 100 mM NHS (GE) immediately prior to injection into the channel. The CM5 sensor chip was activated for 420 seconds with the activator. Goat anti-human Fc IgG (30 μg/mL in 10 mM NaAc, pH 4.5) was then injected into the channel at a flow rate of 10 μL/min for 420 seconds. The chip was deactivated by 1 M ethanolamine hydrochloric acid. The antibodies diluted in running buffer (1×HBS-EP+) were injected into the channel at a flow rate of 10 μL/min for 30 seconds. Seven concentrations (100 nM, 50 nM, 25 nM, 12.5 nM, 6.25 nM, […], and 1.563 nM) of analyte human 4IgB7H3 were injected sequentially into the channel at a flow rate of 30 μL/min for an association phase of 180 seconds, followed by dissociation of 3600 seconds. Glycine (10 mM, pH 1.5) was injected as regeneration buffer after the dissociation phase.
The sensorgrams for the reference channel and the buffer channel were subtracted from the test sensorgrams. The experimental data were fitted with a 1:1 binding model. The molecular weight of the human 4IgB7H3 used in the calculation was 47.8 kDa.
The experimental data were fitted by a 1:1 binding model bundled with the Biacore 8K evaluation software.

[3] = system: LD1-2034-362055 patient-derived prostate cancer tumor cells; experiment: Prostate cancer micro patient-derived xenograft model LD1-2034-362055; assay type: in vivo, mice; conditions: 10 mg/kg single tail vein injection, 10 days, LD1-2034-362055 model
Text: Tumor tissues of patient-derived prostate cancer transplantation models LD1-2027-410644 and LD1-2034-362055 (obtained from Shanghai LIDE Biotech., Co. Ltd.) were inoculated subcutaneously into mice. When the tumors grew to 500-800 mm^3, the tumor tissues were surgically and aseptically removed from the mice, and non-tumor tissues and necrotic tissues were removed in a biosafety cabinet to ensure the purity of the inoculated tumor tissues. The mice were euthanized. The treated tumor tissues were cut into small tumor masses of 1-3 mm^3, and the tumor masses were digested with the collagenase digest at 37° C. for 1-2 h. The supernatant was removed by centrifugation at 1200 rpm for 3 min, and the cells were resuspended in 10 mL of PBS containing 1% FBS and counted on a hemocytometer. […] The cells were resuspended in an RPMI1640 cell culture medium and counted on a hemocytometer. […]
The cell suspension was placed into capsules. […] The day of inoculation was recorded as day 0, and the animals were subjected to a single administration by tail vein injection. […]
At the end of the experiment, the mice were euthanized. The capsules were removed and cell viability assay was performed with CellTiter-Glo, i.e., the capsules were cut into pieces, PBS and CellTiter-Glo™ reagent with the same volume were added, and the luminescence value was measured. […]

Row | Molecule | appearance of the antibody protein ([1]; PBS, after thawing and gently shaking) | appearance of the antibody protein ([1]; buffer exchanged to 20 mM His, 8% sucrose, 0.02% PS80, pH 6.5) | ka [2] | kd [2] | Mean signal value (CellTiter-Glo cell viability at endpoint) [3]
1 | W301088-1.145.16-z3-p1-uIgG1KV320: humanized anti-B7H3 IgG1 antibody, heavy chain SEQ ID NO: 12, light chain SEQ ID NO: 13 (antibody) heavy: QVQLQESGPGLVKPSQTLSLTCTVTDYSITGDYAWNWIRQHPGKGLEWIGYISYSGSTSYNPSLQSRVTISRDTSKNQFSLKLSSVTAADTAVYFCARSLGRRWYFVVWGQGTTVTVSSASTKGPSVFPLAPSSKSTSGGTAALGCLVKDYFPEPVTVSWNSGALTSGVHTFPAVLQSSGLYSLSSVVTVPSSSLGTQTYICNVNHKPSNTKVDKRV[not shown - human IgG1 Fc with changes] light: DIVMTQSPDSLAVSLGERATINCKSSQSLLQSSNQKNYLAWYQQKPGQPPKLLIYFASTRESGVPDRFSGSGSGTDFTLTISSLQAEDVAVYYCQQHYSAPWTFGGGTKVEIKRTVAAPSVFIFPPSDEQLKSGTASVVCLLNNFYPREAKVQWKVDNALQSGNSQESVTEQDSKDSTYSLSSTLTLSKADYEKHKVYACEVTHQGLSSPVTKSFNRGEC | some particles were observed | no particle was observed | 657000 M⁻¹ s⁻¹ | 4.65e-05 s⁻¹ | –
2 | WBP301088-X2: antibody WBP301088 conjugated to linker-payload X2; the DAR6 batch was used in Examples 3-11 (conjugate) heavy: QVQLQESGPGLVKPSQTLSLTCTVTDYSITGDYAWNWIRQHPGKGLEWIGYISYSGSTSYNPSLQSRVTISRDTSKNQFSLKLSSVTAADTAVYFCARSLGRRWYFVVWGQGTTVTVSSASTKGPSVFPLAPSSKSTSGGTAALGCLVKDYFPEPVTVSWNSGALTSGVHTFPAVLQSSGLYSLSSVVTVPSSSLGTQTYICNVNHKPSNTKVDKRV[not shown - human IgG1 Fc with changes] light: DIVMTQSPDSLAVSLGERATINCKSSQSLLQSSNQKNYLAWYQQKPGQPPKLLIYFASTRESGVPDRFSGSGSGTDFTLTISSLQAEDVAVYYCQQHYSAPWTFGGGTKVEIKRTVAAPSVFIFPPSDEQLKSGTASVVCLLNNFYPREAKVQWKVDNALQSGNSQESVTEQDSKDSTYSLSSTLTLSKADYEKHKVYACEVTHQGLSSPVTKSFNRGEC | – | – | – | – | 1118020.86
